# Results reported in article PMC7819943, “Rice protein-binding microarrays: a tool to detect cis-acting elements near promoter regions in rice”.
# The other results are listed elsewhere or left out.
# Molecular target: T1, OsWOX13 (Oryza sativa, UniProt Q5QMM3 1-267)
# T1 sequence: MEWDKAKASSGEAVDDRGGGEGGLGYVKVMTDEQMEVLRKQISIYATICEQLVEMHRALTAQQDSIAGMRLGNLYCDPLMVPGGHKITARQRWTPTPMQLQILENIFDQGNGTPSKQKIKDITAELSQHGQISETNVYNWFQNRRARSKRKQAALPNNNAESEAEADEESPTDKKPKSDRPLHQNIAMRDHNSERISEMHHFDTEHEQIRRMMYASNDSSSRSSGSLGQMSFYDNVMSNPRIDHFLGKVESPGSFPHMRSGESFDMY
# Experiment: protein-binding microarray (RPBM); PBS, 2% BSA, 51.3 ng/ul salmon testes DNA, 50 uM zinc acetate, 200 nM TF, 25 C, 1 h; high values mean tight binding
# Details: protein: recombinant; tags: N-terminal polyhistidine and DsRed monomer fusion (pET32a); label: CyDye5-dUTP incorporated in the synthesized complementary strand; 3' TTTTT single-stranded linker to array surface; dsDNA, one strand shown
# Outline: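 Binding signal is reported as fluorescence intensity per feature (arbitrary units) from an Axon 4000B scanner. Incubation used 200 nM of each Ni–NTA-purified, N-terminally polyhistidine- and DsRed-fused transcription factor from E. coli BL21-CodonPlus on a double-stranded custom Agilent array for 1 h at 25 °C, with 50 µM zinc acetate in the buffer, followed by washing.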
row,Sequence,binding signal
1,CGTACCAGCTGATTGATGGTGTCACTCACCAAATGTTCTTCGGAGTCACCTAGTGCAG,34300 fluorescence intensity (a.u.)
2,CGATGACAGTTAGATAGGTTATCCCAATTATTATACTGGTCGGAGTCACCTAGTGCAG,15100 fluorescence intensity (a.u.)
3,GAGAATTGCCCCTAAATTTAATGTAAATATCTTGAAGTGTCGGAGTCACCTAGTGCAG,6120 fluorescence intensity (a.u.)
4,TTTGTTCCTTAATTATCTCGCCTCCACTTTAACTGTGGGCCGGAGTCACCTAGTGCAG,9060 fluorescence intensity (a.u.)
5,GAAATTATATGCCTAATTAACTAACTATACTATAAACCTGCGGAGTCACCTAGTGCAG,24200 fluorescence intensity (a.u.)
6,TCTAAATTAAAATAACCTTCACCCGTTGTAACGCGCGAGCCGGAGTCACCTAGTGCAG,12000 fluorescence intensity (a.u.)
7,TTAACAAACGGATGTTTCCATTCCAAAATACACCAACTTTCGGAGTCACCTAGTGCAG,4510 fluorescence intensity (a.u.)
8,CGGATTAATTAGGCTTAATAAATTTATCTCGCAATTTACACGGAGTCACCTAGTGCAG,44700 fluorescence intensity (a.u.)
9,TGTTAATTTGATGAGTCGCTCTTCTTCATTGTAGGGTGAACGGAGTCACCTAGTGCAG,42100 fluorescence intensity (a.u.)
10,TATTGTCACACTGATTGGATACAAGTCGCGGTTTGTATATCGGAGTCACCTAGTGCAG,16400 fluorescence intensity (a.u.)
11,CATTTATATAATTAAACAATCAATAAAGGGAATTACACTACGGAGTCACCTAGTGCAG,21500 fluorescence intensity (a.u.)
12,TGTAATTTATTTTGTTATTAGTCTACGTTTAATACTTGAACGGAGTCACCTAGTGCAG,16800 fluorescence intensity (a.u.)
13,AAAGAGTGATTATGAGTCATTGTTACGAAGAATCTAGCATCGGAGTCACCTAGTGCAG,14300 fluorescence intensity (a.u.)
14,GCAGTAATTAGCTTGTGCACCTTACCTTCTGATGCAGCTCCGGAGTCACCTAGTGCAG,20000 fluorescence intensity (a.u.)
15,CCACCACCAATCACTGCCTCCGATCCGACTGGATCAGGTACGGAGTCACCTAGTGCAG,13800 fluorescence intensity (a.u.)
16,CACATGATGACTTGATTCCCGGTACGTTTCGTGCACAAAGCGGAGTCACCTAGTGCAG,3340 fluorescence intensity (a.u.)
17,AATTAAATTTTAACTATTAATATTATATTTTATAAATATTCGGAGTCACCTAGTGCAG,6480 fluorescence intensity (a.u.)
18,TAAGGATAGTCAACAAATTGAAGGAATATCTTATACATGCCGGAGTCACCTAGTGCAG,3510 fluorescence intensity (a.u.)
19,TATAACAAATTTGAATGTGTCATTTTCATATGCCCAAAATCGGAGTCACCTAGTGCAG,4090 fluorescence intensity (a.u.)
20,ATCGGACAAATTTTAGTAAGTGACGTTAACTTCTGCATTACGGAGTCACCTAGTGCAG,3980 fluorescence intensity (a.u.)
21,CATAATTGCCGGTGCGTGATGCGGGAGTTGGTTCGACCAGCGGAGTCACCTAGTGCAG,32400 fluorescence intensity (a.u.)

row,Sequence,binding signal
1,TGATATAATACAATCAATCTGTAGTTTTGTGATAGTTTGACGGAGTCACCTAGTGCAG,5930 fluorescence intensity (a.u.)
2,GAAATTACGATTTGTCATCGGAGAAGAGGAATTCATTGTCCGGAGTCACCTAGTGCAG,3470 fluorescence intensity (a.u.)
3,ATATTGAATTATTGATTTGATGAAAATAATTTAGTATTATCGGAGTCACCTAGTGCAG,20500 fluorescence intensity (a.u.)
4,AAAATTAAATGCGATCAATCAGAGCCGTCCATATCTCTGCCGGAGTCACCTAGTGCAG,33400 fluorescence intensity (a.u.)
5,CTTCAATTACAATCCGGTGCAACACGTGTGGAATAATACACGGAGTCACCTAGTGCAG,5920 fluorescence intensity (a.u.)
6,AACCGTGATTGTGAAGCCTCATTCTCTTTTATGGAAGGCACGGAGTCACCTAGTGCAG,26500 fluorescence intensity (a.u.)
7,GTCACCAATTATCAACAGAAAAGGGTGTGTAACCTTACCACGGAGTCACCTAGTGCAG,3870 fluorescence intensity (a.u.)
8,GACTTGTTATCGTATAATTAATTAAGTACTATCGTATAATCGGAGTCACCTAGTGCAG,7460 fluorescence intensity (a.u.)
9,AAGTGATTTTCCGGTCTGATTGCTTGACGCTAATCCAAAACGGAGTCACCTAGTGCAG,19500 fluorescence intensity (a.u.)
10,TTGAAATATAAATCAAATATATATTAGAGGCATCCATAAGCGGAGTCACCTAGTGCAG,5620 fluorescence intensity (a.u.)
11,GTTAGATGATAAAACATGATTAATATTTTATGTGTGACTTCGGAGTCACCTAGTGCAG,7500 fluorescence intensity (a.u.)
12,TGTGTAGTCTTGTTTGATTTAATTGCAACGAATTTAATGGCGGAGTCACCTAGTGCAG,3470 fluorescence intensity (a.u.)
13,GGCGCGCTGATTGCGAGGGAGGCCGAGAACGGCATCCATACGGAGTCACCTAGTGCAG,5300 fluorescence intensity (a.u.)
14,TAACAATAATTACAATGACTTATACTCACCCTATCCACAACGGAGTCACCTAGTGCAG,12300 fluorescence intensity (a.u.)
15,AGCAAGATTGCAATAACTCCATAATTAATAGTGCTATCAGCGGAGTCACCTAGTGCAG,25700 fluorescence intensity (a.u.)
16,AAAATAATTTAGGATACTCACAAGAAAATAAACGATCGTCCGGAGTCACCTAGTGCAG,5740 fluorescence intensity (a.u.)
17,GTGTAAATTAGACCATTTTATAGATATCTTGTAGCAAATTCGGAGTCACCTAGTGCAG,5520 fluorescence intensity (a.u.)
18,GTATTTGTGTGATTGATTTTAAGTTAGAACACAGTGATGACGGAGTCACCTAGTGCAG,33400 fluorescence intensity (a.u.)
19,ACGTGTTGATTATGCTAAGCAATTAGAGATTACGTATTGACGGAGTCACCTAGTGCAG,13800 fluorescence intensity (a.u.)
20,TTAATTAACAGGCCAAGTTTTCACTACCCAATAAACAAGGCGGAGTCACCTAGTGCAG,12300 fluorescence intensity (a.u.)
21,GCTTGATGGATTGGGTAGTGGCCGAGGCCGATGGCTCTCCCGGAGTCACCTAGTGCAG,27800 fluorescence intensity (a.u.)

row,Sequence,binding signal
1,TGTTTTACCCTGATTGCGTGAAGTGAAACTATTATTCAGGCGGAGTCACCTAGTGCAG,3550 fluorescence intensity (a.u.)
2,CAAATTCTGATTGCAGAGCCAGAAGAGCCAGTCGCATTGTCGGAGTCACCTAGTGCAG,16200 fluorescence intensity (a.u.)
3,AACTTAATTATATAGTTTAACATCATCATATTTATATTTGCGGAGTCACCTAGTGCAG,25700 fluorescence intensity (a.u.)
4,AATAAAATTGACGTTCTCCATTTTGGAAAGGAGGGACTAACGGAGTCACCTAGTGCAG,16400 fluorescence intensity (a.u.)
5,GACGCCGTCAGCAATGATTGCCTTGCTAGCAGCTGCTTGACGGAGTCACCTAGTGCAG,4390 fluorescence intensity (a.u.)
6,TCCCAATTGACTAGAGGATGCTTCAGAGATGAAAACATGGCGGAGTCACCTAGTGCAG,9280 fluorescence intensity (a.u.)
7,AGTGTGTGATTGATAGTAGTATTAATTATTTTAAACTTAACGGAGTCACCTAGTGCAG,39700 fluorescence intensity (a.u.)
8,CATGCCTATCGTGATTAGTTAGCCCAGTCAGCTCGATCAGCGGAGTCACCTAGTGCAG,7680 fluorescence intensity (a.u.)
9,AAATCGGTAATTTTATAATGGCATGGATCTAATTAACCCTCGGAGTCACCTAGTGCAG,5860 fluorescence intensity (a.u.)
10,GATATACTATTGATATAATTGATGGATTGACTGGTAAACCCGGAGTCACCTAGTGCAG,44000 fluorescence intensity (a.u.)
11,ACAATATAATTACACTTCAATTCCATTATATTACATGCGACGGAGTCACCTAGTGCAG,15900 fluorescence intensity (a.u.)
12,ATTATATCACTTATTAATTTTCAGGCTATGAAACAAGAGCCGGAGTCACCTAGTGCAG,4070 fluorescence intensity (a.u.)
13,CTCATTTAATTGTGCTGTTTTCTTTCTCTTCAGTGAAATACGGAGTCACCTAGTGCAG,9750 fluorescence intensity (a.u.)
14,GTGGAGATGATGGGATTTGCTTTGAGATTTGTGATGGAACCGGAGTCACCTAGTGCAG,4170 fluorescence intensity (a.u.)
15,CAAGCCTTCACTGATTGCACTGTGGTAGTATGGACTTAAGCGGAGTCACCTAGTGCAG,4720 fluorescence intensity (a.u.)
16,GGAGGCGCATTGCCACCGATTGATTGAGCTCTCCTTCTCCCGGAGTCACCTAGTGCAG,6010 fluorescence intensity (a.u.)
17,ATGAAATTAACTAAAATAATAATAAAAGTAATCACCTCAGCGGAGTCACCTAGTGCAG,13500 fluorescence intensity (a.u.)
18,ATACACAGCTGTAATTTAAAACAATTTTAAATGAGCTAGTCGGAGTCACCTAGTGCAG,3370 fluorescence intensity (a.u.)
19,AGAAAACAAACATATTATCAAATTATATTATATGTTAGTTCGGAGTCACCTAGTGCAG,3390 fluorescence intensity (a.u.)
20,TTTAACATTTCCCCTTATAATTTTACCAAATCACTATGTTCGGAGTCACCTAGTGCAG,4600 fluorescence intensity (a.u.)
21,ATCGTCCCTAAATTGGACAAAATTACACTGAACTACGCAGCGGAGTCACCTAGTGCAG,19900 fluorescence intensity (a.u.)

row,Sequence,binding signal
1,AATTTTGAATTTGATATAATTTATTTTATATCATTTGCTTCGGAGTCACCTAGTGCAG,10400 fluorescence intensity (a.u.)
2,GTTAATTACCCCGGTGTCACTTTCAGTCACCATCACCACTCGGAGTCACCTAGTGCAG,24600 fluorescence intensity (a.u.)
3,ACAATTTGGTAATTGATAAGATGGAGAAGAAACTGATCTCCGGAGTCACCTAGTGCAG,27400 fluorescence intensity (a.u.)
4,GAATCCAATTAAGACCAGCATGATGGATTTTGGAAAAGATCGGAGTCACCTAGTGCAG,13700 fluorescence intensity (a.u.)
5,CGCGTAATGGATTTGGGAAATTGGGAACCCATTGCTGCTGCGGAGTCACCTAGTGCAG,25800 fluorescence intensity (a.u.)
6,TCCTCTGATTTTCCACCACAAGATCTCTAGTTTCTTTGATCGGAGTCACCTAGTGCAG,5220 fluorescence intensity (a.u.)
7,ACATATGTAATTACATATGTAATTTTAGGAACTTACAATGCGGAGTCACCTAGTGCAG,24100 fluorescence intensity (a.u.)
8,GTCGCACTCACTCACTCGCATCCTCTCCTCTCAAATACTCCGGAGTCACCTAGTGCAG,3640 fluorescence intensity (a.u.)
9,TCAAATTCTAAATAGACAGATCCGGACTACCTGAATTAACCGGAGTCACCTAGTGCAG,21300 fluorescence intensity (a.u.)
10,CCTAATCGTTGATATTGGTGATAGAGACAAAGATTTCATGCGGAGTCACCTAGTGCAG,6170 fluorescence intensity (a.u.)
11,GAGATAAATTAGGAGAGTTTTCAACAGTGACAGCCCAGGCCGGAGTCACCTAGTGCAG,14200 fluorescence intensity (a.u.)
12,CTGCTGATTGGCTTATCAACAATAGCCAATATTTAAATGTCGGAGTCACCTAGTGCAG,26800 fluorescence intensity (a.u.)
13,CCCATATTAAAATTTGCTAATCAAATTCTCGAACTTACGTCGGAGTCACCTAGTGCAG,6840 fluorescence intensity (a.u.)
14,AATCTATATTTAATATTTATAATTAGTGTCCAAACCTTGACGGAGTCACCTAGTGCAG,7140 fluorescence intensity (a.u.)
15,GTAATTGGTTTGGTCAACAGCACAGCTAGCTTCTCCGTACCGGAGTCACCTAGTGCAG,4990 fluorescence intensity (a.u.)
16,TTGCCGTAAAATTGATTTTATATTCACGCTGTAGATACTGCGGAGTCACCTAGTGCAG,9720 fluorescence intensity (a.u.)
17,AGATAATTGTGAAATAATTATATTGCGATTTGATAAAGTACGGAGTCACCTAGTGCAG,14700 fluorescence intensity (a.u.)
18,AAATTTTGATCAAATCTTCTTCTTAACGTTGTACACTTATCGGAGTCACCTAGTGCAG,3980 fluorescence intensity (a.u.)
19,ATTAAACGTAGATTAATAACAAAACAAATCACAGATTCCGCGGAGTCACCTAGTGCAG,6620 fluorescence intensity (a.u.)
20,ATCACCAATCTATCTATAAAACCAAGGTGGTCGTCGTCTCCGGAGTCACCTAGTGCAG,5560 fluorescence intensity (a.u.)
21,AGGAAAATGTGGTGAGTAATTAGGTTATAATTTATTGAGTCGGAGTCACCTAGTGCAG,4100 fluorescence intensity (a.u.)
